Source: the supplement of paper PMC3334620
Over roughly 33,000 sequences, “E-score (-0.5 to 0.5)” has its median near -0.054; the highest 2% begin near 0.39. The list shows a part of the results.

Each sequence was assayed against Ylr278c (UniProt Q05854) (assay: PBM E-score (8-mer binding enrichment) (E-score (-0.5 to 0.5)); higher = stronger / more preferred TF binding; most listed sequences are background and not binding sites). Details: protein concentration: 200 nM; construct: GST-DNA-binding domain.
Method in brief: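 E-scores (a modified Wilcoxon-Mann-Whitney statistic) were assigned by the Universal PBM Analysis Suite to every ungapped eight-base word pooled with its reverse complement. The input came from universal all-10-mer Agilent arrays made double-stranded by primer extension and probed with GST-tagged yeast transcription factors at about 100-200 nM. Fluorescent anti-GST detected bound protein, and masliner normalised the scans.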

Sequence	PBM E-score
CATCGATC	-0.111
CAGACGCA	-0.0578
ACAAGTAC	-0.0289
CACAGCAC	-0.118
GGCTACAC	-0.161
AATTTTCG	0.126
AGGACAAG	-0.207
GGATCAAA	0.0369
AAAGACGA	-0.147
GGATCGCC	0.107
GACAGGTA	-0.0451
AGGGAGAG	-0.256
ATGTTTCA	-0.153
GAAGGGAC	-0.175
AAGACCAT	-0.112
CCGGGACC	0.408
CGTATATA	-0.111
CTCACAAG	-0.207
GAGATCAA	0.0546
AAGCTGAT	-0.0508
CCTATAGA	-0.189
CCCCGAAG	0.3
AGTTCTCC	0.251
CTAAATCC	0.309
GCTTGTAA	-0.171

Sequence	PBM E-score
ATCCATGG	0.0118
CGGGATTC	0.392
AACGCTAA	-0.393
CTTTGGTC	-0.0362
AGGTAGGC	-0.111
AGCACTAA	-0.0957
CACGTCGA	-0.141
CATTGAGG	-0.117
CCTTGGTA	0.0261
GATATACA	-0.0016
AGAGTCCG	0.347
ACCTTGTC	-0.192
AGAGTTCC	0.2
ACTCCGTG	0.449
AAACTGGG	-0.0511
CTATGCCC	-0.1
ATTACGCA	0.0188
CGAGGTCC	0.333
AAACCTCT	-0.0199
ATTCCATG	-0.00616
GACCATCC	-0.0475
CCGATAAA	0.385
CACAGACA	-0.139
CTCCTAAG	-0.158
GGGTGATA	-0.0273

Sequence	PBM E-score
AGGGGCCG	0.0855
ATGCATTG	-0.231
CGCGATAA	0.126
CAGATGGA	0.113
ACTACACA	0.0266
AACAGGTC	-0.139
ATGAAAAC	0.064
TGACAGAA	-0.22
ATGTCTGC	-0.0367
AACGACCC	0.0589
GCACTATA	-0.161
TCGCGTCA	-0.0951
GTCCATTA	-0.178
CCCGGAGC	0.452
CATCTCCG	0.463
CCCACTCC	0.199
AAGCCACA	-0.162
ATTCTTCC	0.133
GCACACCA	-0.112
CCGCCATA	0.256
GTTCGAAA	0.0551
AAGTTTTA	-0.0254
ATAGGTTC	-0.0262
AACCCCCT	-0.374
CGTTATCA	-0.133

Sequence	PBM E-score
CTTATGAA	-0.135
TACAGTAA	-0.189
ATTACATG	0.0663
ATGACGGG	0.122
CATGGAAG	-0.0195
AAGCAATC	-0.0664
AAAGTAGC	-0.0669
ACTCTGTA	-0.175
GAGGTTGC	0.0511
AGAACTCC	0.276
GTGGGGTA	0.202
ACTCGTTG	-0.245
TGTTCGAA	-0.136
AACATGAA	-0.202
GAAATCGA	0.192
CCCTTCGA	0.0176
AGAATCCT	-0.196
TAGTGTCA	-0.113
AGCTTCAA	-0.0837
TCCCGGAA	0.44
AAGACAGC	-0.0488
ATTTTAAC	-0.0451
ATTCACCC	0.076
CTCGTTTC	-0.0952
CGAGGCAC	-0.0591

Sequence	PBM E-score
CCGTAATA	0.15
CGAGAGAA	-0.0446
GGAATTAC	0.302
CGCTCTCA	-0.144
AATAGGAT	0.106
TACGTTGA	-0.272
ATGAAATC	0.0267
GGAGTACC	0.167
ACACCCGA	0.102
GCTGAACC	0.00745
AAGATTCC	0.074
CCCCCTAC	-0.226
CCAATGAA	-0.0266
CGTGTATC	0.022
ACCACTGA	-0.281
ATATAGTC	0.0315
GGAACCGA	0.23
AGTATATG	-0.0862
CATTGACA	-0.185
CCCTCGTA	-0.0977
CGCCCGGC	0.292
AGGGCGTG	0.0333
CCAACGCG	0.126
AACGCCAT	-0.0995
ATGACCAT	-0.071

Sequence	PBM E-score
CACGAAGG	-0.0763
CTGCATGA	-0.288
AACGACGT	-0.164
CCCGGCGA	0.326
CCCCTAAC	-0.141
CATCACAG	-0.108
GCAAACGA	-0.14
ACGCGAGA	-0.171
CTATCTTC	0.0122
GAGCAAAC	0.0239
GAAGCGGA	0.375
AGGACTAT	-0.152
AGAGAACA	-0.0886
ACATAGCC	0.106
ATTCCCGC	0.348
CCCGCTGA	0.115
AGGAGCCG	-0.0181
CCCTATTC	0.19
AGGCAGAG	-0.316
AACTATTC	0.0951
ACTCCACC	-0.0671
GGTGGTCA	0.0226
TGTGGAAA	-0.0101
ATCTTTTC	-0.0178
CACCTCGC	0.0879

Sequence	PBM E-score
AGTTATTG	-0.0584
CAAGCGTA	-0.415
AAGCCCTA	-0.116
CTTAACAC	-0.212
CCCTGCAA	-0.106
ACGGGAGT	0.223
CACATTCC	0.128
CCCATAGG	-0.0984
GTATCAAA	-0.0672
CCTTGGCA	-0.186
GTTATCGA	0.113
ACTTAAAA	0.0514
ATGCGCGC	0.258
ACGGTTGC	-0.128
AAGGGGCC	-0.0231
CTGGCCAA	-0.0724
CGGCTATC	0.312
AGGTAGAG	-0.168
CGGCAGTA	0.22
ACAGCGAC	-0.184
ATTCCCGG	0.411
TTAAGAAA	-0.224
